# Laboratory results as given in the supplement of paper PMC8728848.
# Some of the results follow.
# B1: Microvirin-2 (Microcystis aeruginosa) (protein)
# chain: MPNFSHTCSSINYDPDSTILSAECQARDGEWLPTELRLSDHIGNIDGELQFGDQNFQETCQDCHLEFGDGEQSVWLVCTCQTMDGEWKSTQILLDSQIDNNDSQLEIGGSMPNFSHTCSSINYDPDSTILSAECQARDGEWLPTELRLSDHIGNIDGELQFGDQNFQETCQDCHLEFGDGEQSVWLVCTCQTMDGEWKSTQILLDSQIDNNDSQLEIG
# How the values were obtained:
# Test in all cases: glycan array binding signal (z-score within array); higher = stronger binding
# Settings in all cases: glycan notation: IUPAC condensed, linker removed
# Fuc(a1-2)Gal = target: Fuc(a1-2)Gal
# Method in brief: (§1)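 Glycan array binding is given as a within-array Z-score, which can be read as non-binding when negative. The arrays, 3228 of them, came from the Consortium for Functional Glycomics database and were retained only where the protein sequence was available. Z-scores were averaged across arrays of the same protein sequence at different concentrations or buffers and across linkers.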
# Fuc(a1-2)Gal(b1-3)GalNAc = target: Fuc(a1-2)Gal(b1-3)GalNAc
# Method in brief: as §1
# [1] = target: Fuc(a1-2)Gal(b1-3)GalNAc(a1-3)[Fuc(a1-2)]Gal(b1-4)Glc
# Method in brief: as §1
# [2] = target: Fuc(a1-2)Gal(b1-3)GalNAc(a1-3)[Fuc(a1-2)]Gal(b1-4)GlcNAc
# Method in brief: as §1
# [3] = target: Fuc(a1-2)Gal(b1-3)GalNAc(b1-3)Gal
# Method in brief: as §1
# [4] = target: Fuc(a1-2)Gal(b1-3)GalNAc(b1-3)Gal(a1-4)Gal(b1-4)Glc
# Method in brief: as §1
# [5] = target: Fuc(a1-2)Gal(b1-3)GalNAc(b1-4)[Neu5Ac(a2-3)]Gal(b1-4)Glc
# Method in brief: as §1
# Fuc(a1-2)Gal(b1-3)GlcNAc = target: Fuc(a1-2)Gal(b1-3)GlcNAc
# Method in brief: as §1
# [6] = target: Fuc(a1-2)Gal(b1-3)GlcNAc(b1-2)Man(a1-3)[Fuc(a1-2)Gal(b1-3)GlcNAc(b1-2)Man(a1-6)]Man(b1-4)GlcNAc(b1-4)GlcNAc
# Method in brief: as §1
# [7] = target: Fuc(a1-2)Gal(b1-3)GlcNAc(b1-2)Man(a1-3)[Fuc(a1-2)Gal(b1-3)GlcNAc(b1-2)Man(a1-6)]Man(b1-4)GlcNAc(b1-4)[Fuc(a1-6)]GlcNAc
# Method in brief: as §1
# [8] = target: Fuc(a1-2)Gal(b1-3)GlcNAc(b1-3)Gal(b1-4)Glc
# Method in brief: as §1
# [9] = target: Fuc(a1-2)Gal(b1-3)GlcNAc(b1-3)GalNAc
# Method in brief: as §1
# [10] = target: Fuc(a1-2)Gal(b1-3)GlcNAc(b1-3)[Fuc(a1-2)Gal(b1-3)GlcNAc(b1-6)]GalNAc
# Method in brief: as §1
# [11] = target: Fuc(a1-2)Gal(b1-3)GlcNAc(b1-3)[Gal(b1-4)GlcNAc(b1-6)]Gal(b1-4)Glc
# Method in brief: as §1
# [12] = target: Fuc(a1-2)Gal(b1-3)GlcNAc(b1-3)[Neu5Ac(a2-6)Gal(b1-4)GlcNAc(b1-6)]Gal(b1-4)Glc
# Method in brief: as §1
# [13] = target: Fuc(a1-2)Gal(b1-3)GlcNAc6S
# Method in brief: as §1
# [14] = target: Fuc(a1-2)Gal(b1-3)[Fuc(a1-4)]GlcNAc
# Method in brief: as §1
# [15] = target: Fuc(a1-2)Gal(b1-3)[Fuc(a1-4)]GlcNAc(b1-2)Man(a1-3)[Fuc(a1-2)Gal(b1-3)[Fuc(a1-4)]GlcNAc(b1-2)Man(a1-3)]Man(b1-4)GlcNAc(b1-4)GlcNAc
# Method in brief: as §1
# [16] = target: Fuc(a1-2)Gal(b1-3)[Fuc(a1-4)]GlcNAc(b1-2)Man(a1-3)[Fuc(a1-2)Gal(b1-3)[Fuc(a1-4)]GlcNAc(b1-2)Man(a1-6)]Man(b1-4)GlcNAc(b1-4)[Fuc(a1-6)]GlcNAc(b1-4)[Fuc(a1-6)]GlcNAc
# Method in brief: as §1
# [17] = target: Fuc(a1-2)Gal(b1-3)[Fuc(a1-4)]GlcNAc(b1-3)[Fuc(a1-3)[Gal(b1-4)]GlcNAc(b1-6)]Gal(b1-4)Glc
# Method in brief: as §1
# [18] = target: Fuc(a1-2)Gal(b1-3)[Fuc(a1-4)]GlcNAc(b1-3)[Gal(b1-4)GlcNAc(b1-6)]Gal(b1-4)Glc
# Method in brief: as §1
# [19] = target: Fuc(a1-2)Gal(b1-4)Fuc(a1-3)]GlcNAc(b1-2)Man(a1-3)[Fuc(a1-2)Gal(b1-4)[Fuc(a1-3)]GlcNAc(b1-2)Man(a1-6)]Man(b1-4)GlcNAc(b1-4)GlcNAc
# Method in brief: as §1
# Fuc(a1-2)Gal(b1-4)Glc = target: Fuc(a1-2)Gal(b1-4)Glc
# Method in brief: as §1
# Fuc(a1-2)Gal(b1-4)Glc6S = target: Fuc(a1-2)Gal(b1-4)Glc6S
# Method in brief: as §1
# Fuc(a1-2)Gal(b1-4)GlcNAc = target: Fuc(a1-2)Gal(b1-4)GlcNAc
# Method in brief: as §1
# [20] = target: Fuc(a1-2)Gal(b1-4)GlcNAc(b1-2)Man
# Method in brief: as §1
# [21] = target: Fuc(a1-2)Gal(b1-4)GlcNAc(b1-2)Man(a1-3)[Fuc(a1-2)Gal(b1-4)GlcNAc(b1-2)Man(a1-6)]Man(b1-4)GlcNAc(b1-4)GlcNAc
# Method in brief: as §1
# [22] = target: Fuc(a1-2)Gal(b1-4)GlcNAc(b1-2)Man(a1-3)[Fuc(a1-2)Gal(b1-4)GlcNAc(b1-2)Man(a1-6)]Man(b1-4)GlcNAc(b1-4)[Fuc(a1-6)]GlcNAc
# Method in brief: as §1
# [23] = target: Fuc(a1-2)Gal(b1-4)GlcNAc(b1-2)[Fuc(a1-2)Gal(b1-4)GlcNAc(b1-4)]Man(a1-3)[Fuc(a1-2)Gal(b1-4)GlcNAc(b1-2)Man(a1-6)]Man(b1-4)GlcNAc(b1-4)GlcNAc
# Method in brief: as §1
# [24] = target: Fuc(a1-2)Gal(b1-4)GlcNAc(b1-3)Gal(b1-4)GlcNAc
# Method in brief: as §1
binder,measurement,setting,value
B1,glycan array binding signal (z-score),Fuc(a1-2)Gal,-0.143
same,glycan array binding signal (z-score),Fuc(a1-2)Gal(b1-3)GalNAc,-0.137
same,glycan array binding signal (z-score),[1],-0.141
same,glycan array binding signal (z-score),[2],-0.135
same,glycan array binding signal (z-score),[3],-0.005
same,glycan array binding signal (z-score),[4],-0.136
same,glycan array binding signal (z-score),[5],-0.133
same,glycan array binding signal (z-score),Fuc(a1-2)Gal(b1-3)GlcNAc,-0.139
same,glycan array binding signal (z-score),[6],0.021
same,glycan array binding signal (z-score),[7],0.239
same,glycan array binding signal (z-score),[8],-0.139
same,glycan array binding signal (z-score),[9],-0.125
same,glycan array binding signal (z-score),[10],-0.099
same,glycan array binding signal (z-score),[11],-0.139
same,glycan array binding signal (z-score),[12],-0.14
same,glycan array binding signal (z-score),[13],-0.093
same,glycan array binding signal (z-score),[14],-0.136
same,glycan array binding signal (z-score),[15],-0.068
same,glycan array binding signal (z-score),[16],-0.061
same,glycan array binding signal (z-score),[17],-0.137
same,glycan array binding signal (z-score),[18],-0.127
same,glycan array binding signal (z-score),[19],-0.106
same,glycan array binding signal (z-score),Fuc(a1-2)Gal(b1-4)Glc,-0.132
same,glycan array binding signal (z-score),Fuc(a1-2)Gal(b1-4)Glc6S,-0.135
same,glycan array binding signal (z-score),Fuc(a1-2)Gal(b1-4)GlcNAc,-0.137
same,glycan array binding signal (z-score),[20],-0.13
same,glycan array binding signal (z-score),[21],-0.084
same,glycan array binding signal (z-score),[22],0.197
same,glycan array binding signal (z-score),[23],-0.032
same,glycan array binding signal (z-score),[24],-0.126
